# From the RNAGym collection of RNA variant scans (doi:10.7554/elife.90254)
# The source gives no read counts; variants with many changes may rest on few reads.
# B1: LINE1-mini (parent)
# chain: GGCAGAGCUCAACACAGCGUGGCAAAGUGGCUGUGGCUAGACUGCC
# Variants of: B1
# Assay: self-cleavage, relative activity (ratio to wild type); higher = more cleavage; in vitro, sequencing; the parent is a self-cleaving ribozyme
row,Variant,self-cleavage
1,U9G A16U A24G C31A G35A C42G,0.03
2,U9G A26U G40C,0.01
3,U9C G19C A25U C42G,0
4,U9G A14G U20A G30C,0.12
5,U9G A11G C18U A26C G27C G30U A39G A41U,0.01
6,U9C C23A A26G G35U,0.01
7,U9C G27C G33A,0.02
8,U9C G22A A24U,0.02
9,U9C G17A U28C,0.02
10,U9C G19A G36C C42A,0
11,U9C G17U G36U C45G,0.02
12,U9G A25U U28C,0.11
13,U9C C37U A41G,0
14,U9C U38G G40A,0.03
15,U9G A16C U20C,0
16,U9G A25G G30C G35A A39C,0.02
17,U9C U20G C23A,0.02
18,U9G A11G A26C,0.01
19,U9C C23A G33C,0.03
20,U9G A16C G36A,0.04
21,U9G A26U G29U,0.03
22,U9C C31A G33U,0.03
23,U9G C10A C15A U43A,0.01
24,U9C G17U U28G U34A,0.02

row,Variant,self-cleavage
1,U9C C23A G29C C46G,0
2,U9C G29U U34G,0.01
3,U9C G19U U20C G29A G40A,0.03
4,U9G A14U U34A G35U,0
5,U9G A24U A25C U34C,0
6,U9C G19C A39G,0
7,U9C G21C A24U G40A C42U G44A,0
8,U9C U34C G35C,0.02
9,U9C U32G G44C,0
10,U9G A11C G19U C23U G30A C31U U38G,0
11,U9G A11G G21C U38A,0.01
12,U9G A16U C23A C37U,0.01
13,U9C G22A G29U,0.01
14,U9C G22C A24G C45U,0.02
15,U9C C23G G30C,0.05
16,U9C G17U G19A C23G G29A,0.05
17,U9C G27C G35A,0.02
18,U9C G17A C46G,0.01
19,U9G A16G G21U G36C C42U,0.01
20,U9C G19U U32C,0
21,U9C G40A C42U,0.03
22,U9G A25C G40U C46G,0.01
23,U9G A16C G21C G36A,0.03
24,U9G A24C C42U,0.01

row,Variant,self-cleavage
1,U9C U28G C37U,0.03
2,U9G A12C G35U C46A,0
3,U9C G30C C46A,0.03
4,U9G A25G C31U C45G,0.02
5,U9C U34C C37A,0.06
6,U9G A12U C13U A24U U28G U43A,0.01
7,U9G A11U G30U G40U U43G,0.01
8,U9G A11C C13A G21U C37G,0.01
9,U9C G29A G35C G36A G40U A41U C42G,0.02
10,U9C G22U A39U,0.01
11,U9G A14U C15U G30C A41G,0.2
12,U9G A25C U28C G30U,0.01
13,U9C G17U C31U,0.02
14,U9C G19C C45A,0.01
15,U9C C31U U38C,0.01
16,U9C G35A C42A U43A,0.04
17,U9C C31A U32A,0.06
18,U9G A16U U32G,0.06
19,U9C G19A U20C G36C,0.01
20,U9G A12C G29A C31U,0.01
21,U9C G21C C23G A26U,0.02
22,U9G A24G C31G,0.03
23,U9C C18U U32G G33A A39U,0.01
24,U9G A11C U20A C31U,0.01

row,Variant,self-cleavage
1,U9C G19U U34A,0.03
2,U9C U38C C42A,0.04
3,U9G A25U C42U,0.07
4,U9G A11C C13G G19A C37U A39U,0.01
5,U9C G17U A25U G40A,0.03
6,U9G A14C C18G C37A,0.16
7,U9C G27A U32C G36A C42G G44A,0.01
8,U9G A14C C18A G36C,0.02
9,U9G A24U A26G G40A,0.02
10,U9C G22U C23G A24U G35U,0.01
11,U9C G22C C37A A41U,0.08
12,U9C G33U C37U,0.01
13,U9G A14U A39G A41C,0.03
14,U9C C31U A41G,0
15,U9C G33C U38A,0.04
16,U9G A11U G22C,0.02
17,U9G A26G C37U,0.04
18,U9C G36A U38A,0
19,U9C U38C G40A,0.01
20,U9C C23G A25G,0.01
21,U9C C42U C46G,0.11
22,U9C G29C G33C,0.03
23,U9G A11U C18U G21C U28A A41C,0.01
24,U9C U28C C42A,0.01

row,Variant,self-cleavage
1,U9C U28C C42G,0.04
2,U9G A24U U32C C37G,0.17
3,U9C G17U G40A U43C,0.02
4,U9C C23A A25G C31U A39C,0.01
5,U9G A26G U34A,0.01
6,U9C G40A U43C,0.01
7,U9C G21A U28A C31A,0
8,U9G A16U A24C U28C G30U,0.01
9,U9C G17U C18U C46U,0.02
10,U9G A11U G19C C23A U34G,0
11,U9C G27A G35U,0.07
12,U9C G27A G33C,0.02
13,U9G A12C G22U C42G,0
14,U9G A26U G44C C46A,0.03
15,U9G A25C C31A C37U,0.07
16,U9G A14U C37G,0.24
17,U9G A16G U20C G44A,0.03
18,U9C U20A A26U A39U,0
19,U9G A39U C45G,0.02
20,U9G A25G G27A U32G,0.05
21,U9G A11G C15A U38A,0.02
22,U9C G22A C31A C46A,0.03
23,U9G A12C C23U G36C,0.01
24,U9G A16G G21U A26C U34A,0

row,Variant,self-cleavage
1,U9C C42G C46G,0.01
2,U9C G21A C23G G27C G44U C46U,0.01
3,U9C G17C A25C G29A C46A,0.01
4,U9C G29U A41U C45U,0.03
5,U9G A14U G27C,0.14
6,U9G A14G U20A,0.03
7,U9G A16G G27U U28G C45U,0.09
8,U9G A12G G17U U28G G40U,0.03
9,U9C G29U C46A,0.04
10,U9G A12C G44A,0.39
11,U9C C18U G22A C46U,0.03
12,U9G A11G G33U U34G,0.02
13,U9C C18U C42G,0.01
14,U9G A11G C46A,0.03
15,U9G A24U U34A A39U G40A,0
16,U9C G22U A41U,0.06
17,U9G A12C G22A,0.01
18,U9C C37A U38A G40A,0.01
19,U9C G30A C31G G36U G40U C42A,0.01
20,U9G A16C U34G,0.08
21,U9C U20A G40A,0.01
22,U9G A12U C15U G22U A24G G27C U32C C37U,0.02
23,U9C C23U A41C,0.02
24,U9C U28G C42A,0.02

row,Variant,self-cleavage
1,U9G A25U A26U U34C,0.02
2,U9G A16C C42G,0.01
3,U9C U20G A25C G33A U38A G44A,0
4,U9C G21A C23G,0.03
5,U9G A26C U34C U38A,0.04
6,U9G C10A C13U U20C G29A C31A,0.02
7,U9G A11U A26G,0.01
8,U9C G17A U20C C23A,0.02
9,U9G A14C G19C,0.02
10,U9C G22U C23A C42A,0.01
11,U9C G27A U34C,0.02
12,U9C G21U U34G,0.18
13,U9G A16U U34C,0.02
14,U9C G21A U38G C45G,0.01
15,U9C C23U G27A U28G C45G C46U,0.01
16,U9C G30A G36U,0.02
17,U9G A26U U28C,0.04
18,U9C U20G A26U A39G C45U,0
19,U9G C10A A24U C37U U38G,0
20,U9C U38C G44C,0.02
21,U9C U28G G35A,0.03
22,U9C U20C C42A,0.03
23,U9G A12G A14U G21U,0.01
